The full ranking holds about 110,000 compounds; the median of “z-score” is about -0.1, and the highest 2% start at about 2. The list shows a part of the results. Activity calls are given as the source filed them.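 How the source made its calls: active means z-score in the third read window above 3 or below -3; inactive means the rest.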
These compounds were tested against Metabotropic glutamate receptor 8 (Rattus norvegicus) (UniProt P70579) (assay: rat mGluR8 modulators via GIRK flux, primary screen, cell-based, thallium flux, HTS (AID 488969)). Details: HEK293 rat mGluR8, GIRK (G protein-gated inwardly rectifying potassium channel) thallium flux, FluoZin2; at 10 µM; stronger effect = higher value; submaximal glutamate (EC20) added with thallium.
Sequence of UniProt P70579 (P70579 whole entry, looked up): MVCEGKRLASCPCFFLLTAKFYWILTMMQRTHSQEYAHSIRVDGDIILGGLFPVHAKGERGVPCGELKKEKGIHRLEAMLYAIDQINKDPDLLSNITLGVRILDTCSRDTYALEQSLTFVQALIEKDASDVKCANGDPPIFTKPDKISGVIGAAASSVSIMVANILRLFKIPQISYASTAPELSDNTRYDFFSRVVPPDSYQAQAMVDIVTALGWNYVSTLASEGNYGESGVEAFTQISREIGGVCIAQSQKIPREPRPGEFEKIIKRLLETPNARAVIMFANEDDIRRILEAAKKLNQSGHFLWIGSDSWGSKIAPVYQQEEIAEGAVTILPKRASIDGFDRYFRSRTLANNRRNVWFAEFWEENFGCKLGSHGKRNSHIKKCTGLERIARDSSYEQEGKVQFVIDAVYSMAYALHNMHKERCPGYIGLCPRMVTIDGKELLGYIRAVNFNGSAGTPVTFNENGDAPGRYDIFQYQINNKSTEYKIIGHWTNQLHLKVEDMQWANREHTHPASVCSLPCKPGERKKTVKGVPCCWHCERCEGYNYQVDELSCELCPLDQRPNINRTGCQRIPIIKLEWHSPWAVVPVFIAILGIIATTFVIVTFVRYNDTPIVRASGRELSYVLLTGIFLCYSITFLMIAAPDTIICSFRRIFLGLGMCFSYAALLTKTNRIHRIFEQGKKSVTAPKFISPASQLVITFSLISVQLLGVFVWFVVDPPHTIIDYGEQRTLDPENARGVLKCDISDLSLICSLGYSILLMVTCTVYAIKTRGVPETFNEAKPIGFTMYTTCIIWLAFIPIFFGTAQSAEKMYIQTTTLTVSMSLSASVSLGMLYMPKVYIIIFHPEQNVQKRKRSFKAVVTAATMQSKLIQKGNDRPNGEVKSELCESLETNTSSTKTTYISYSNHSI

Row | SMILES | z-score
1 | Clc1ccc(OCCSc2ncccn2)c2ccccc12 | -0.00595
2 | O=C(CN1CCCCCC1)OCCN=C1NS(=O)(=O)c2ccccc21 | 0.851
3 | Cc1ccc2nc(C)/c(=N\O)c(C)nc2c1 | -0.0738
4 | NC(=O)c1cccnc1Nc1ccccc1F | -0.234
5 | Cc1ccc2nc3c(cc2c1)c(NC(=O)c1ccccn1)nn3CC(C)C | 0.222
6 | Cc1ccc2c(c1)C1OCCC1C1N2C(=O)C2C(C(=O)O)C3C=CC21O3 (centres undefined) | 0.325
7 | Cc1cc(NC(=O)c2cccc3ccccc23)cc(C)c1OCC(=O)N1CCOCC1 | 0.469
8 | COc1ccc(-n2c(COc3ccc(Cl)cc3)nnc2SCc2ccc(C#N)cc2)cc1 | 0.113
9 | CSc1ccccc1C(=O)NCCCOC(C)C | -0.577
10 | N=c1c2c(ncn1CCN1CCOCC1)Oc1ccc3ccccc3c1C2c1ccccc1 (centres undefined) | active: 4.03
11 | N#Cc1cc2c(=O)n3ccccc3nc2n(CC2CCCO2)c1=N (centres undefined) | -0.341
12 | CCNc1nc(NCC)nc(N(C)N)n1 | -0.063
13 | C=CCn1c(SCC(=O)Nc2ccc3c(c2)OCO3)nnc1-c1cc(Br)ccc1O | -1.31
14 | Cc1ccc(Nc2nnc(SCc3cc(=O)n4ccsc4n3)s2)c(C)c1 | 0.497
15 | O=C(CCl)Nc1nc(-c2ccco2)c(-c2ccco2)s1 | 0.0191
16 | O=C(Nc1ccc2nc3ccccc3nc2c1)c1ccc(Br)cc1 | -0.078
17 | CCOC(=O)N1CCN(C(=O)CCCOc2ccccc2)CC1 | 1.69
18 | Cc1cc(C)n2cc(CSc3nnnn3-c3ccccc3C)nc2n1 | -0.75
19 | CC(C)(C)OC(=O)NNC(=O)c1ccc(Cl)cc1 | -0.212
20 | COc1ccc2nc(NC(=O)CN3CCOCC3)sc2c1 | -0.487
21 | CN(Cc1cc([N+](=O)[O-])c2cccnc2c1O)C1CCCCC1 | -0.107
22 | CCOc1cc(/C=N\NC(=O)C2C(=O)NCC2c2ccccc2)ccc1OC (centres undefined) | -0.196
23 | Cc1ccc(COc2ccc(Br)cc2/C=N/O)cc1 | -0.148
24 | O=C(NC(=S)Nc1cccc(Cl)c1N1CCCC1)c1ccc(-c2cccc([N+](=O)[O-])c2)o1 | active: 4.93
25 | CC(C)c1ccc(/C=C/C(=O)NC2=NCCS2)cc1 | 0.00731

Row | SMILES | z-score
26 | Cn1cccc1C(=O)OCc1csc(-c2ccccc2)n1 | -0.0668
27 | O=C(Nc1ccc(N2CCOCC2)cc1)c1cccc(S(=O)(=O)N2CCCCC2)c1 | 0.129
28 | Cc1cccc(Nc2nc(N)nc(CN3CCC(C)CC3)n2)c1C | 0.0689
29 | Cc1cc(N2CCCC2=O)c(N)cc1N | -0.104
30 | CCCCn1c(NS(=O)(=O)c2ccc(C)cc2)c(S(=O)(=O)c2ccccc2)c2nc3ccccc3nc21 | -0.84
31 | CC(=O)Nc1ccc(/C=N/Nc2nc3ccccc3[nH]2)cc1 | -0.184
32 | COc1ccc(C2Nc3ccccc3C(=O)N2Cc2ccco2)cc1CN1C(=O)c2ccccc2C1=O (centres undefined) | -0.0741
33 | COC(=O)NNC(=O)c1ccccc1C | -0.103
34 | COc1cccc(C(=O)N(C)c2nnc(-c3ccncc3)s2)c1 | -0.208
35 | Cc1cccc(-c2nc(CS(=O)CC(=O)NCc3cccs3)c(C)o2)c1 (centres undefined) | -0.214
36 | CC(C)C(=O)Nc1cccc(-c2nc3ccccc3c(=O)o2)c1 | -1.86
37 | COc1ccc(/C=C/c2nnc(NC(=O)COc3cccc(C)c3)s2)cc1 | -0.0413
38 | Cc1c(NC(=O)CCC(=O)N2CCCCC2)c(=O)n(-c2ccccc2)n1C | -0.244
39 | O=C(NCCOC12CC3CC(CC(C3)C1)C2)c1cccc(Br)c1 | -0.4
40 | N#CCCN1CCN(C(=S)c2ccc(-c3cc(Cl)ccc3Cl)o2)CC1 | -0.193
41 | Cc1nc(-c2ccccc2)sc1C(=O)CSc1ccc(F)cc1 | -0.323
42 | O=C(O)CCSc1nc2ccc(Br)cc2[nH]1 | 0.089
43 | CC(C)(C)C(=O)Nc1ccnc(-c2cccnc2)n1 | 0.0335
44 | Nc1nc(NCc2ccco2)nc(N2CCCCC2)c1[N+](=O)[O-] | -0.0744
45 | CCOC(=O)c1c(NC(=O)C(=O)N/N=C/c2ccccc2OC)sc2c1CCCCC2 | 0.206
46 | O=C(NCC(=O)N(Cc1ccco1)C(C(=O)NC1CCCCC1)c1cccnc1)c1ccco1 (centres undefined) | 0.556
47 | CC1=C(C)CC2C(=O)N(c3cccc4ccccc34)C(=O)C2C1 (centres undefined) | 0.177
48 | Cc1cc(-c2ccc(Cl)cc2)c(C#N)c(N)n1 | -0.315
49 | Cc1ccn(C(=O)c2cc3ccccc3oc2=O)n1 | -0.371
50 | CCOC(=O)c1ccc(S(=O)(=O)NNC(=O)COc2ccc(C)cc2)cc1 | -0.148

Row | SMILES | z-score
51 | C=CCCC(=O)Nc1nc(C)c(-c2csc(Nc3ccc(Cl)cc3Cl)n2)s1 | -0.203
52 | CNC(=S)NNC(=O)Cc1ccc(O)cc1 | 0.306
53 | Cc1cccc(Nc2cc(=O)[nH]c(=O)[nH]2)c1 | -0.155
54 | COC(=O)Nc1c(C)n(C)n(-c2ccccc2)c1=O | -0.00194
55 | CCCN(CCC)Cc1c(C(=O)OCC)nnn1-c1nonc1N | 0.913
56 | Cc1ccc(-c2csc(=S)n2CC(=O)OCC(=O)NCc2ccc(F)cc2)cc1 | -0.29
57 | Cc1cc(C)cc(NC(=S)NC2CC3CCC(C2)N3Cc2ccco2)c1 (centres undefined) | 1.02
58 | COc1ccccc1/C=C/C=N\N1CCN(Cc2ccccc2Cl)CC1 | active: 5.52
59 | CC(C)NS(=O)(=O)c1ccc(OCC(=O)NCc2cccnc2)cc1 | -0.193
60 | c1nc2sc3c(c2c2nnnn12)CCCC3 | 0.905
61 | O=C(CSc1nc2ccccc2[nH]1)Nc1ccc(F)c(F)c1 | -0.0142
62 | Cc1nc(NC(=O)CN(C)S(=O)(=O)c2ccc(Br)cc2)sc1C | -1.12
63 | N#C/C(=C/c1ccc(N2CCOCC2)c([N+](=O)[O-])c1)C(N)=O | -0.068
64 | COc1ccc(OCCCSc2ncccn2)cc1 | 0.783
65 | CCCCNC(=S)N/N=C/C1=CCC2CC1C2(C)C (centres undefined) | 1.99
66 | Cc1cccc(OCc2nc3ccccc3c(=O)n2N)c1 | -0.29
67 | CN1CCN(C(=O)C2(NC(=O)NCc3ccccc3)CCCCC2)CC1 | 1.03
68 | O=C1/C(=C\c2ccco2)CCC/C1=C\c1ccco1 | -0.207
69 | Nc1cc(=O)[nH]c(SCc2nnnn2-c2ccc(Cl)cc2)n1 | -0.375
70 | CCOC(=O)CSc1ncc(OC)c(Sc2ccc(Cl)cc2)n1 | -0.173
71 | Cc1ccc(OC(=O)c2ccccc2P(=O)(O)O)cc1 | 0.0146
72 | O=C(Nc1cc([N+](=O)[O-])ccc1Cl)C(Sc1ccccc1)c1ccccc1 (centres undefined) | -0.165
73 | Cc1nn(C)c(C)c1S(=O)(=O)N1CCCC(C(=O)N2CCN(c3ccc(Cl)cc3)CC2)C1 (centres undefined) | 0.149
74 | CCOC(=O)C(NC(=O)c1ccccc1)=C1CCCCC1 | 1.21
